Measurements taken from US20090241221A1, “TANDEM REAPEAT DNA CONSTRUCTS PRODUCING PROTEINS THAT ATTACK PLANT PATHOGENIC VIRUSES, FUNGI, AND BACTERIA BY DISRUPTING TRANSCRIPTION FACTORS ESSENTIAL FOR REPLICATION THEREOF IN PLANTS” (priority 2008, published 2009).

Tests used:
[1] = test system: Common ornamental plant cells infected by viruses; assay: Treatment of virus-infected ornamental plants; conditions: viral strains not determined
[2] = test system: pathogenic fungus present in the test tube water; assay: Resistance of Portulaca to pathogenic fungus in the test tube water; conditions: continuously exposed to 6 mM PA, 10 days

SMILES	effect on viral disease of ornamental plants [1]	suppression of DnaJ-like proteins (DnaJ-like proteins)	root development [2]
CCCCc1ccc(C(=O)O)nc1 [fusaric acid, 5-butyl picolinic acid]	positive results (elimination of the disease leaves without any progression of the viral disease)	–	–
O=C(O)c1ccccn1 [picolinic acid, 2-pyridine carboxylic acid]	positive results (elimination of the disease leaves without any progression of the viral disease)	did not lead to the suppression of DnaJ-like proteins	profuse root system
